PMC9911399, “Two distinct binding modes provide the RNA-binding protein RbFox with extraordinary sequence specificity”
Substitutions are numbered along the chain they refer to; changes in the protein carry UniProt numbers. The list shows a part of the results.

T1: RBFOX1 RRM RbFoxmut (Fox-RRM*) (Homo sapiens, UniProt Q9NWB1 109-208, R118D;E147R;N151S;E152T)
T1 sequence: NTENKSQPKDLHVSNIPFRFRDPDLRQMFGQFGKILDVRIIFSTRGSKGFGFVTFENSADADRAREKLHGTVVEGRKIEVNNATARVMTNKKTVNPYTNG

B1: UCCUGGG (DNA:RNA)
RNA: GGGAGACCGGAAUUCAGAUUGUCCUCCUGGGUUAAAUCCCGUCGUAGCCACCA
DNA 1: CAATCTGAATTCCGGTCTCCC
DNA 2: TGGTGGCTACGACGGGATT
B2: UUACCGC (DNA:RNA)
RNA: B1 RNA with C26U, C27A, U28C, G29C, G31C
DNA 1: CAATCTGAATTCCGGTCTCCC
DNA 2: TGGTGGCTACGACGGGATT
B3: AUCGACG (DNA:RNA)
RNA: B1 RNA with U25A, C26U, U28G, G29A, G30C
DNA 1: CAATCTGAATTCCGGTCTCCC
DNA 2: TGGTGGCTACGACGGGATT
B4: GUCAUGA (DNA:RNA)
RNA: B1 RNA with U25G, C26U, U28A, G29U, G31A
DNA 1: CAATCTGAATTCCGGTCTCCC
DNA 2: TGGTGGCTACGACGGGATT
B5: UCAUGAC (DNA:RNA)
RNA: B1 RNA with C27A, G30A, G31C
DNA 1: CAATCTGAATTCCGGTCTCCC
DNA 2: TGGTGGCTACGACGGGATT
B6: GGGGAAG (DNA:RNA)
RNA: B1 RNA with U25G, C26G, C27G, U28G, G29A, G30A
DNA 1: CAATCTGAATTCCGGTCTCCC
DNA 2: TGGTGGCTACGACGGGATT
B7: UCCCUUA (DNA:RNA)
RNA: B1 RNA with U28C, G29U, G30U, G31A
DNA 1: CAATCTGAATTCCGGTCTCCC
DNA 2: TGGTGGCTACGACGGGATT
B8: CGCCUGC (DNA:RNA)
RNA: B1 RNA with U25C, C26G, U28C, G29U, G31C
DNA 1: CAATCTGAATTCCGGTCTCCC
DNA 2: TGGTGGCTACGACGGGATT
B9: GCCGUAA (DNA:RNA)
RNA: B1 RNA with U25G, U28G, G29U, G30A, G31A
DNA 1: CAATCTGAATTCCGGTCTCCC
DNA 2: TGGTGGCTACGACGGGATT
B10: GAGAGAC (DNA:RNA)
RNA: B1 RNA with U25G, C26A, C27G, U28A, G30A, G31C
DNA 1: CAATCTGAATTCCGGTCTCCC
DNA 2: TGGTGGCTACGACGGGATT
B11: GAAACGU (DNA:RNA)
RNA: B1 RNA with U25G, C26A, C27A, U28A, G29C, G31U
DNA 1: CAATCTGAATTCCGGTCTCCC
DNA 2: TGGTGGCTACGACGGGATT
B12: UGAGAGU (DNA:RNA)
RNA: B1 RNA with C26G, C27A, U28G, G29A, G31U
DNA 1: CAATCTGAATTCCGGTCTCCC
DNA 2: TGGTGGCTACGACGGGATT
B13: GCGCAAU (DNA:RNA)
RNA: B1 RNA with U25G, C27G, U28C, G29A, G30A, G31U
DNA 1: CAATCTGAATTCCGGTCTCCC
DNA 2: TGGTGGCTACGACGGGATT
B14: GAAGAUG (DNA:RNA)
RNA: B1 RNA with U25G, C26A, C27A, U28G, G29A, G30U
DNA 1: CAATCTGAATTCCGGTCTCCC
DNA 2: TGGTGGCTACGACGGGATT
B15: UUUUCAA (DNA:RNA)
RNA: B1 RNA with C26U, C27U, G29C, G30A, G31A
DNA 1: CAATCTGAATTCCGGTCTCCC
DNA 2: TGGTGGCTACGACGGGATT
B16: AAGGAAU (DNA:RNA)
RNA: GGGAGACCGGAAUUCAGAUUGUCCAAGGAAUUUAAAUCCCGUCGUAGCCACCA
DNA 1: CAATCTGAATTCCGGTCTCCC
DNA 2: TGGTGGCTACGACGGGATT
B17: GUAAUGC (DNA:RNA)
RNA: B1 RNA with U25G, C26U, C27A, U28A, G29U, G31C
DNA 1: CAATCTGAATTCCGGTCTCCC
DNA 2: TGGTGGCTACGACGGGATT
B18: CUUGCGG (DNA:RNA)
RNA: B1 RNA with U25C, C26U, C27U, U28G, G29C
DNA 1: CAATCTGAATTCCGGTCTCCC
DNA 2: TGGTGGCTACGACGGGATT
B19: AGAGGGC (DNA:RNA)
RNA: B16 RNA with A26G, G27A, A29G, A30G, U31C
DNA 1: CAATCTGAATTCCGGTCTCCC
DNA 2: TGGTGGCTACGACGGGATT
B20: UCUGGCG (DNA:RNA)
RNA: B1 RNA with C27U, U28G, G30C
DNA 1: CAATCTGAATTCCGGTCTCCC
DNA 2: TGGTGGCTACGACGGGATT

These binders were tested against T1, RBFOX1 RRM RbFoxmut (Fox-RRM*) (assay: EMSA; HiTS-Eq, 1 nM pool, 10 min; buffer printed only for the single-RNA assays: 10 mM Tris pH 7.5, 150 mM NaCl, 3.4 mM EDTA, 0.001% NP-40, 30 C). Conditions: tags: His6 N-terminal (pET28a); label: 5' 32P.
Outline: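 Purified RbFox RRM, wild type or mutant, was incubated for 10 min in 50 µL with 1 nM of a 5′-radiolabelled RNA pool carrying 7 randomized nucleotides, whose flanks were annealed to DNA oligonucleotides, over a series of increasing protein concentrations. Unbound RNA was resolved on 8% native PAGE, cut out, reverse-transcribed, barcoded by PCR and sequenced on an Illumina HiSeq 2500. Relative association constants were derived from changes in read counts for each RNA species versus the control reaction and normalised to the cognate motif.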
In the case of B1, the binding signal is reported as 0.0597 KA relative to UGCAUGU.
For B2, the binding signal was 0.0783 KA relative to UGCAUGU.
B3 was tested, and the binding signal was 0.0916 KA relative to UGCAUGU.
For B4, the binding signal was 0.2 KA relative to UGCAUGU.
For B5, the binding signal was 0.0977 KA relative to UGCAUGU.
For B6, the binding signal was 0.103 KA relative to UGCAUGU.
In the case of B7, the binding signal is reported as 0.0801 KA relative to UGCAUGU.
For B8, the binding signal was 0.129 KA relative to UGCAUGU.
For B9, the binding signal was 0.102 KA relative to UGCAUGU.
In the case of B10, the binding signal is reported as 0.0579 KA relative to UGCAUGU.
With B11 the binding signal was 0.111 KA relative to UGCAUGU.
In the case of B12, the binding signal is reported as 0.111 KA relative to UGCAUGU.
In the case of B13, the binding signal is reported as 0.0516 KA relative to UGCAUGU.
With B14 the binding signal was 0.127 KA relative to UGCAUGU.
B15 was tested, and the binding signal was 0.0545 KA relative to UGCAUGU.
For B16, the binding signal was 0.0899 KA relative to UGCAUGU.
For B17, the binding signal was 0.127 KA relative to UGCAUGU.
With B18 the binding signal was 0.0958 KA relative to UGCAUGU.
With B19 the binding signal was 0.0771 KA relative to UGCAUGU.
For B20, the binding signal was 0.12 KA relative to UGCAUGU.
